Experimental data: ChEMBL document CHEMBL5308541, “MAIP: An Open-Source Tool to Enrich High-Throughput Screening Output and Identify Novel, Druglike Molecules with Antimalarial Activity” (ACS Med Chem Lett, 2023)
Among all 150,000 compounds or so, about 540 (0.36%) showed an effect of 50% or more. This is one part of the list.

System: Plasmodium falciparum
Test: Primary screen in NF54 nanoGlo assay, in single point, at 2uM, 72h; a lower Z score goes with more inhibition
Assay type: functional, Erythrocyte
Conditions: timepoint 72 hour

| SMILES | % Inhibition [%] | Z score |
| --- | --- | --- |
| CN(CC(=O)N1CCN(C2CCOCC2)CC1)C1CCNCC1 | -2 | 0.39 |
| CN1CCC[C@@H](CNc2cc(NCC3CC3)ncn2)[C@@H]1c1cncn1C | -3 | 0.57 |
| O[C@@H](Cc1ccccc1)c1ccc2c(c1)CN(Cc1cccc3ncccc13)CCO2 | 17 | -2.92 |
| N[C@H]1CC[C@@H](NC2CCN(c3ccc(F)c(F)c3)CC2)CC1 | 53 | -9.21 |
| O=C(CC1CC2CCC1C2)NCCCOC1CCCCC1 (stereo unspecified) | 6 | -1.22 |
| Cc1ncn(C)c1C(=O)N1CC[C@](C(=O)O)(c2ccccc2)C1 | -13 | 2.73 |
| c1ccc(-c2noc([C@@H]3CCCN3c3ncnc4sccc34)n2)cc1 | -1 | 0.09 |
| CN(CCCNc1nccc2ncncc12)CC(F)(F)F | -2 | 0.32 |
| O[C@@H]1CC(c2nnc[nH]2)C[C@@H]1CNCc1cccc(-c2ccccn2)c1 (stereo partly specified) | 2 | -0.37 |
| OC1CNCCC1Nc1ncnc2[nH]ccc12 (stereo unspecified) | -5 | 1.01 |
| Cc1nn(CCCNC(=O)C[C@H]2CNCCO2)c(C)c1C | -2 | 0.35 |
| O=c1[nH]c(NCCCNc2cccnc2)nc2c1CCNC2 | -11 | 2.19 |
| CN(C)c1nccc([C@@H]2CN(c3cc(NC4CC4)ncn3)CCO2)n1 | 9 | -1.83 |
| OC1CN(c2ccnc3ccccc23)CCC1N1CCN(c2ccccn2)CC1 (stereo unspecified) | -7 | 1.2 |
| CCOc1ccc(CN2CCN(c3nc(C)cc(NC)n3)C[C@@H]2CCO)cc1 | -5 | 0.82 |
| CO[C@H]1C[C@@H](CN2CCCC2)N(C(=O)Nc2ccc3cc[nH]c(=O)c3c2)C1 | 2 | -0.32 |
| O=C(NC1CCN(Cc2cccs2)CC1)c1cccc(-c2cncnc2)c1 | -2 | 0.35 |
| COc1ccccc1-c1ccc(N(C)CCCn2nc(C)cc2C)nn1 | -14 | 3.1 |
| Cc1nn(C)c(C)c1CC(=O)NS(=O)(=O)c1ccc2[nH]ccc2c1 | 12 | -2.58 |
| CN(C)CC1CCN(C(=O)c2cccc(-c3cncc4ccccc34)c2)CC1O (stereo unspecified) | -8 | 1.66 |
| Cc1nc2[nH]c(=O)c(Br)cc2c(C)c1C | -7 | 1.14 |
| CCN1CCC(NC(=O)CN2CCC(Oc3ccccn3)CC2)CC1 | 9 | -2.04 |
| c1ccc(Nc2nc(-c3ccnc4ccnn34)no2)cc1 | -9 | 1.34 |
| Cn1nnc2ccc(-c3ccc(N[C@H]4CCCC[C@@H]4O)nc3)cc21 | -2 | 0.33 |
| Cc1ccc(-c2cc(C(=O)N[C@H]3CCCN(C4CCN(C)CC4)C3)n[nH]2)s1 | 5 | -0.79 |
| Cc1noc(-c2ccnc(NC[C@@H](c3ccccn3)N3CCOCC3)c2)n1 | 95 | -18.79 |
| Cc1cc(N2CCC[C@H](N3CCN(c4ccccc4C)CC3)C2)nc(C(C)C)n1 | -7 | 1.48 |

| SMILES | % Inhibition [%] | Z score |
| --- | --- | --- |
| COc1ccc(CN(C)C(=O)[C@@H]2CC3(CCNCC3)CN2C)c2cccnc12 | -4 | 0.62 |
| CNc1nc(NC(C)(C)CN2CCCCCC2)ncc1F | -9 | 1.33 |
| COCCCn1ccc(N[C@@H](C)c2cc(C(F)(F)F)cc(C(F)(F)F)c2)n1 | -10 | 2.14 |
| COc1ccc2nc(C)nc(NCc3ccc(C(=O)N4CC(C)OC(C)C4)cc3)c2c1 (stereo unspecified) | -2 | 0.44 |
| CCCc1nc(NCCC(=O)N2CCN(C(C)C)CC2)c2cnn(C)c2n1 | 10 | -2.24 |
| O=C(c1cccc(-c2ccc3nc[nH]c(=O)c3c2)c1)N1CCOC[C@@H]1CO | -10 | 1.8 |
| CN(CCC#N)C[C@H](O)CN1CCc2[nH]c3ccc(F)cc3c2C1 | -1 | 0.27 |
| C1CC2(CCN1)CCC(N1C3CCNCC1CC3)CC2 (stereo unspecified) | -7 | 1.39 |
| Cc1nccc(C2CCN(CCN3CCN(c4ccccc4)CC3)CC2)n1 | 1 | -0.11 |
| CCOc1ccc2nc(-c3ncc[nH]3)ccc2c1 | -3 | 0.47 |
| Cn1cnnc1-c1cccc(NCc2cccc(-c3ccncc3)c2)c1 | -7 | 1.52 |
| Cc1cc(-c2nc3ccccc3[nH]2)nc2ccccc12 | -10 | 1.78 |
| CN(c1cc(C#N)ccn1)S(=O)(=O)c1ccccc1S(C)(=O)=O | -7 | 1.27 |
| CCN1CCC(N2CCC(C(=O)NCCc3ccc(OC(F)(F)F)cc3)CC2)CC1 | 43 | -7.72 |
| CC(C)(CC(=O)O)NS(=O)(=O)c1ccc2c(c1)OC(F)(F)O2 | -11 | 2.2 |
| NS(=O)(=O)Cc1cccc(NC(=O)c2cc(F)cc3c(=O)c4cccc(F)c4[nH]c23)c1 | -8 | 1.68 |
| O=C(NCCn1ncc2ccccc2c1=O)N1CCC[C@H](c2ccncn2)C1 | -12 | 2.55 |
| COc1cc(C(C)NCc2ccncc2O[C@H]2CCNC2)c(F)cn1 (stereo partly specified) | -8 | 1.28 |
| c1cc(N2CCN(CC3CCNCC3)CC2)ccn1 | -2 | 0.37 |
| CCNC(=O)N1CCC(NCCc2c[nH]c3cc(Cl)ccc23)CC1 | 0 | 0.09 |
| FC(F)Oc1cc(CNc2ncnc3[nH]ncc23)ccn1 | 15 | -2.63 |
| c1ccc(-c2cc(-c3c(-c4ccccc4)cn4c3sc3ccccc34)c(-c3ccccc3)nn2)cc1 | -7 | 1.1 |
| Nc1cc(N2CCN(CCOc3ccccc3)CC2)nc(N2CCOCC2)n1 | 3 | -0.56 |
| CC1(C)CC(NC[C@H](O)COc2cc(C(C)(C)C)c(O)c(C(C)(C)C)c2)CC(C)(C)N1 | 8 | -1.38 |
| CN1CCN(CCNCc2sc3ccccc3c2Cl)CC1 | 1 | -0.16 |
| Cc1ccc2nc(Nc3cccc(F)c3)c(-c3noc(C(C)C)n3)cc2c1 | -14 | 2.37 |
